No constants are given. Whether binding was seen depends on the method and setting. For part of these data: In cells and extracts the contact can be indirect. Some entries that bind do so weakly or less than the wild type. For part of these data: Sequences can lack the tags named with a protein.
Experiments:
[1] = biological target: T1, PER2(356–574) bait in pBT (human) (UniProt O15055); assay: two-hybrid; BacterioMatch II bacterial two-hybrid, direct co-transformation of defined pBT-PER2 baits and pTRG-BRCA1 preys; growth on Tet/Cam, Tet/Cam/3-AT and Tet/Cam/3-AT/Str
T1 sequence: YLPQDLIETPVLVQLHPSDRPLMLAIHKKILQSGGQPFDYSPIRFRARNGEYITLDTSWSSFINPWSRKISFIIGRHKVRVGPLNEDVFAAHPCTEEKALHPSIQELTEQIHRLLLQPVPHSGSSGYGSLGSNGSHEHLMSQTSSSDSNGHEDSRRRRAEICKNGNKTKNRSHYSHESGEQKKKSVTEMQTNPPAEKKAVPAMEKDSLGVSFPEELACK

[2] = biological target: T2, PER2(683–872) bait in pBT (human) (UniProt O15055); assay: as above
T2 sequence: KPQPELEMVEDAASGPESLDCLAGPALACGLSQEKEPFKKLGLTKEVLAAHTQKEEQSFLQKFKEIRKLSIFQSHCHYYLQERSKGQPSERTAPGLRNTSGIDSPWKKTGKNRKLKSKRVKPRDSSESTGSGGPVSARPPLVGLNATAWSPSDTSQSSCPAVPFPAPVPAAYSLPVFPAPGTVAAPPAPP

[3] = biological target: T3, PER2(822–1255) bait in pBT (human) (UniProt O15055); assay: as above
T3 sequence: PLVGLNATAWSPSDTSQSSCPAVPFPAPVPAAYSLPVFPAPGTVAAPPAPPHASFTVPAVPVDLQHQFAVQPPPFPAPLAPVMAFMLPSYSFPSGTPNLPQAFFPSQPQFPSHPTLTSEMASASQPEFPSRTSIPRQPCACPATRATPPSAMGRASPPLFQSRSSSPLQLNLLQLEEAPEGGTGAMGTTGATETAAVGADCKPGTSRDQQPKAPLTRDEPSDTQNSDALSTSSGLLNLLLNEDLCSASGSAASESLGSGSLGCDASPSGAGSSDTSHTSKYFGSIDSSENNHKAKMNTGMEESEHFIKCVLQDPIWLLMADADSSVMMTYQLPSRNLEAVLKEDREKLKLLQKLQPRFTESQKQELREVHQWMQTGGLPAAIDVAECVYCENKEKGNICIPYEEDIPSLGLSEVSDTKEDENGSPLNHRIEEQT

[4] = biological target: T4, pBT-PER2 (residues 1-1255), full-length human PER2 bait (human) (UniProt O15055); assay: as above
T4 sequence: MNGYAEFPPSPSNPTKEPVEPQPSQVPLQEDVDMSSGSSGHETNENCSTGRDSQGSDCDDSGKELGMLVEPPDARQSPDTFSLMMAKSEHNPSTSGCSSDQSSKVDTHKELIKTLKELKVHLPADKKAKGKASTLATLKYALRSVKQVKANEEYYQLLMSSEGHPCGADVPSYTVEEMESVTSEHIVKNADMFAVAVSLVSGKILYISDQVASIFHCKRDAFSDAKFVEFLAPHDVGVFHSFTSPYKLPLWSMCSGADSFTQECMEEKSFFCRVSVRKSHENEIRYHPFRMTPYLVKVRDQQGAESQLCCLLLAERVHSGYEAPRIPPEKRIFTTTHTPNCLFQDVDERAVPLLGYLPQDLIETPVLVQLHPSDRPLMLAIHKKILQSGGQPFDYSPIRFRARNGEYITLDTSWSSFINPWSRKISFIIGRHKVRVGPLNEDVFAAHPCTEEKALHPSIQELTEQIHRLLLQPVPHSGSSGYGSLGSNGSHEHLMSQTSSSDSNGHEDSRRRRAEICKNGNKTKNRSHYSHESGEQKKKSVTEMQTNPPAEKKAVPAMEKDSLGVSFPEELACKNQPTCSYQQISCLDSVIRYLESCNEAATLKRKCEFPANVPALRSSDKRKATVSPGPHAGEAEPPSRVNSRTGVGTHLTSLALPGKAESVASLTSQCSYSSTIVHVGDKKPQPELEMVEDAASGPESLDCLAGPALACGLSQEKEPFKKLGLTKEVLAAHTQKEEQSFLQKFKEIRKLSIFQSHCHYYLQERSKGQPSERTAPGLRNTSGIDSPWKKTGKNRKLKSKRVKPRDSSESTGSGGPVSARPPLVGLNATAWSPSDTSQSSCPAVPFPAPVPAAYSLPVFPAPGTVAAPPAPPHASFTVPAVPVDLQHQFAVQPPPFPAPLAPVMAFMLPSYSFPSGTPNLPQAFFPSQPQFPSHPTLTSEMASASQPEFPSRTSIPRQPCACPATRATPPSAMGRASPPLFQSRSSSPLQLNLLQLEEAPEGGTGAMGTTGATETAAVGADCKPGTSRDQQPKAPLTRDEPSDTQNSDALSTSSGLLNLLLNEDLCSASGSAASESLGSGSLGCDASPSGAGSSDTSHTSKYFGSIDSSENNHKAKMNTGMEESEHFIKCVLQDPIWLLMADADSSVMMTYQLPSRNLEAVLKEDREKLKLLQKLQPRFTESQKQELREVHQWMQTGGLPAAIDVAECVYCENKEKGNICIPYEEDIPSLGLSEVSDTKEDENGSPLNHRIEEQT

[5] = biological target: T4, pBT-PER2 (residues 1-1255), full-length human PER2 bait (human); assay: two-hybrid; BacterioMatch II bacterial two-hybrid screen: PER2 bait in pBT against a human liver cDNA library in pTRG; selection on 5 mM 3-AT, then 3-AT plus streptomycin; 37 °C
[6] = biological target: T5, GST-PER2(356–574) (human) (UniProt O15055); assay: pull-down; 20 μg GST fusion protein on glutathione-Sepharose beads with 3 μL in vitro translated [35S]-labelled protein; 20 mM Tris-HCl pH 7.4, 100 mM NaCl, 5 mM EDTA, 0.1 % Triton X-100; 1 h at 4 °C; washes with 100 mM and 1 M NaCl; autoradiography; only the target purified
T5 sequence: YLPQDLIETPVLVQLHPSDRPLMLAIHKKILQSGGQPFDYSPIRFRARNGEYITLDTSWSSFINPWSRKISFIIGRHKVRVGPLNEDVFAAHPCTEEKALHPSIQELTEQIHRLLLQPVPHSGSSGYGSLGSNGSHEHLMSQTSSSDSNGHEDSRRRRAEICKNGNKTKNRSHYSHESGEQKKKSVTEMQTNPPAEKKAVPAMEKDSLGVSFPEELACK

[7] = biological target: T6, GST-PER2(683–872) (human) (UniProt O15055); assay: as above
T6 sequence: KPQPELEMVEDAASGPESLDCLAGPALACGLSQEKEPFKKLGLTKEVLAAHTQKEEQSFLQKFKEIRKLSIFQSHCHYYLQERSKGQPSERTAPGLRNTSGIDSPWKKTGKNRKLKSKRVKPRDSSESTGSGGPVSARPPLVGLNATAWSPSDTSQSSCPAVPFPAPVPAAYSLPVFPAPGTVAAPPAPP

[8] = biological target: T7, GST-PER2(1121–1255) (human) (UniProt O15055); assay: condition: 20 μg GST fusion protein, 3 μL in vitro translated protein; pull-down; 20 μg GST fusion protein on glutathione-Sepharose beads with 3 μL in vitro translated [35S]-labelled protein; 20 mM Tris-HCl pH 7.4, 100 mM NaCl, 5 mM EDTA, 0.1 % Triton X-100; 1 h at 4 °C; washes with 100 mM and 1 M NaCl; autoradiography; only the target purified
T7 sequence: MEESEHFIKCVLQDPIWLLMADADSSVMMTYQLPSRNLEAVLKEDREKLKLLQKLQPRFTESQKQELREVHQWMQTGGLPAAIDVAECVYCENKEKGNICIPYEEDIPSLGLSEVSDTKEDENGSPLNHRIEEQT

[9] = biological target: T8, GST-PER2(173–355) (human) (UniProt O15055); assay: as above
T8 sequence: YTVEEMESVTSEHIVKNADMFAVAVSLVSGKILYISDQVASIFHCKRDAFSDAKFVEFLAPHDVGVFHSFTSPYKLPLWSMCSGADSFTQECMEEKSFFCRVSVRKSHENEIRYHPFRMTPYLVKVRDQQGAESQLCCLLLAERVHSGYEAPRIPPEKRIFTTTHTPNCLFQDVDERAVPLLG

[10] = biological target: T9, GST-PER2(1–172) (human) (UniProt O15055); assay: as above
T9 sequence: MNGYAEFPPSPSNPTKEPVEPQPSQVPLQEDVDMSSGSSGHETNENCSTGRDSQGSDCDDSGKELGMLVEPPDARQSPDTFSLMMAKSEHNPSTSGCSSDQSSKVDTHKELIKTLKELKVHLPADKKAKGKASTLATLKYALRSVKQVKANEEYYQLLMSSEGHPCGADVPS

[11] = biological target: T10, GST-PER2(575–682) (human) (UniProt O15055); assay: as above
T10 sequence: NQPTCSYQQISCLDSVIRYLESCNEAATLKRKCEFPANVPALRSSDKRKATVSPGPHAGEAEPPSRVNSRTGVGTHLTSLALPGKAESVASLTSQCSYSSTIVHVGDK

[12] = biological target: T11, GST-PER2(873–1120) (human) (UniProt O15055); assay: as above
T11 sequence: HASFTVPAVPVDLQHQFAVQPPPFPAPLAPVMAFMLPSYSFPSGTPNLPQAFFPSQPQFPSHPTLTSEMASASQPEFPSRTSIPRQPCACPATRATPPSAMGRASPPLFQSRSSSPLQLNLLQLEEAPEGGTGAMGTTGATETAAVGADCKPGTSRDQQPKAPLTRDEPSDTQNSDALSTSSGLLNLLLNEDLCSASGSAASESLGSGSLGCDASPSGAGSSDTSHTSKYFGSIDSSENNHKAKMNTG

Binder | binding [1] | binding [2] | binding [3] | binding [4] | binding [5] | binding [6] | binding [7] | binding [8] | binding [9] | binding [10] | binding [11] | binding [12]
BRCA1 residues 1670–1863 (BRCT domain) prey in pTRG (domain or fragment, UniProt P38398 1670-1863) RKHHITLTNLITEETTHVVMKTDAEFVCERTLKYFLGIAGGKWVVSYFWVTQSIKERKMLNEHDFEVRGDVVNGRNHQGPKRARESQDRKIFRGLEICCYGPFTNMPTDQLEWMVQLCGASVVKELSSFTLGTGVHPIVVVQPDAWTEDNGFHAIGQMCEAPVVTREWVLDSVALYQCQELDTYLIPQIPHSHY | binds | binds | binds | binds | binds |  |  |  |  |  |  | 
FLAG-BRCA1 (1670–1863), in vitro translated (domain or fragment, UniProt P38398 1670-1863, [35S]-methionine label) RKHHITLTNLITEETTHVVMKTDAEFVCERTLKYFLGIAGGKWVVSYFWVTQSIKERKMLNEHDFEVRGDVVNGRNHQGPKRARESQDRKIFRGLEICCYGPFTNMPTDQLEWMVQLCGASVVKELSSFTLGTGVHPIVVVQPDAWTEDNGFHAIGQMCEAPVVTREWVLDSVALYQCQELDTYLIPQIPHSHY |  |  |  |  |  | binds | binds | no binding | no binding | no binding | no binding | no binding
